Measured values from the RNAGym collection of RNA variant scans (doi:10.7554/elife.90254).
The source gives no read counts; variants with many changes may rest on few reads.

B1: LINE1-full (parent)
chain: UACGUAGGUGGUUUUCCCCUGAUAGUGCUAAGGGGGCCUGGAAGUUUGGACUGGGCAGAGCUCAACACAGCGUGGCAAAGUGGCUGUGGCUAGACUGCCUCUCUGGAUUCCUCGUCACUCAGCAGGGCAUCUCUGAGAGAAAUGCC

Variants of: B1
Experiment: self-cleavage, relative activity (ratio to wild type); higher = more cleavage; in vitro, sequencing; the parent is a self-cleaving ribozyme

Variant	self-cleavage
U23C U73A U85G U100C C110A U119C	0.37
G21A A69U U73C	0.11
A22G A59G U91C	0
U23C G35U A79G U109C A140G	0.73
U20G G44A U46A C71A	0.04
U23A A31G G33A U87C U115C	0
U20C U96C A138G U143C	0.42
A22G U102C A124U	1.93
A22G U96A A138G	0.3
G21A G72A A77C	0.9
A22G U62C U87G A107G U132A	0.37
A22G U45A A50U	0.97
A22G U62C C146U	0.04
U23C A78G A142G	1.08
U20C U100A A129C	1.08
A22G U109C U119C A140G	0.92
G21A U23C A42U U81C U100C C131U	0.24
U20G A107G U112C	0.64
G21A U62C U130G	0
U23C A43U C95A A117U	0.06
A22G A79G U115A U130C C131U	2.04
U23C A24G A30G	0
G21U U85C U119A A121U G122A	0.14
U23C A67C C103A U109C U115A A136G	0

Variant	self-cleavage
A22U A42U A78G U100C	1.15
A22G U39A U73A C103U U130A	1.88
A22G G60U U73C A92G U100C U112C	0
A22U G58A C63U U85C U100A	0.03
A22G U102C U130A	2.14
U23C A42U A64U A65G A69U	0.17
A22G A43G G44A	1.07
G21A A30G C51A A69U G72A A138G	0.08
A22G A59G C63U A67U A121G A136G	0.24
A22G A57G G70A	0.09
U23C A30G U109A	0.54
A22G U100C A124U	2.07
A22U A24G U102A	2.08
A22U A50U A78G A94G G97U U119C	0.08
A22G U81C U100C A141G	1.84
A22G A30G U46C A64U	0.66
A22G U39C U52C	0.61
A22G U112C A142G	1.89
U20G U39A U132A	1.25
A22U U29C A31U	1.31
U23A U81C U112C A141G	2.8
A22U U47C U102C A117U	2.16
U23C A31U U87A	0.11
U23C G34U A69G A78G U132A	0.57

Variant	self-cleavage
A22U U62C G72U U108A	0.02
A22G A24G A50C A57U U115A	0.27
A22G U73A U108C	1.7
A22U U26C U46A U73A U119A A141G	1.27
A22G U45C A136U A138G	0.34
A22U A92G U96C	0.25
U20C U91C A141U	0.71
A22G U85A G126A	0.12
A22U A24G U109A	1.51
U20G G60A A64C U87C U96C U119C A129U A140G	0
A22G A42G U46C	0.46
U23C A57G G60A U130A	0
A22G A30G U115C	0
A22U A43G G80A	1.62
A22G A79U G126A	1.44
U23C A77G U115C	1.48
A22G U39A A43G U73C	0.33
A22G U85A A124G A140G	0.08
U23A G74A G88A	0.07
A22G A65C A124U	0
A22G U81A U102C A141G	1.3
U23A A59G A77U U112C	0
U20C U102C A138C	1.6
A22G U29C C128U	1.72

Variant	self-cleavage
U20G U29A A69G U132C A141G U143C	1.02
A22U U62C A77G A138U	0
A22C U46A U132C A138G	0.74
U20C U132C A140U	1.48
U23C U26A C38A A129G	0.77
A22G C38A A50U A92G U115A A124G	0.27
U23C U26C A30U A42G	1.02
A22G C63U A64G A140G	0.12
A22G U109C A142G	0
U20G A31U U47A U62C	0.15
U23C G72A U73C	1.67
A22U G88A A121G	0.05
A22G U39A U143C	1.84
A22G U85C U115C	1.53
A22G A57U U100C	0.5
U20G U46A A129G G144A	0.75
A22G U102C A117U	1.21
A22G A64G U112C U143C	0
A22G C63U A92G A142G	0.19
U20C U108C U130C	1.23
U23C A124G U134C	2.39
U23C A30G U85A A121U	0.18
A22G U47A A65G	0.18
A22U G48U A57G C63A	0.1

Variant	self-cleavage
A22C A64G U73C	0
U23C G41U U81C U115C U132C	1.12
U23C A121G A141G	2.3
U23A U39C A117G	1.8
A22U A65G A77G U104A	0
A22G A78G C116U U119C	0.88
U20C U130C A140U	2.1
A22G A65G U115C	0
A22G A69G A78G	0
A22U U73G U96C U112C	0.15
A22G A65U C103U U109A	0.13
A22G G33U A141G	1.39
A22G G34A C37G	1.53
U23C A57U U96A A140G	0.5
A22G A42G A92G	0
G21A U62C U112A	0.03
A22U G33A A59G A65G U73C	0
A22G C95U G135A	0.31
U20G U91C A136G U143C	0.57
U20G A65G A69G G127A U130C	0.19
A22G U29A A30G A107G	1.08
A22G U81A A94U U115C	0.42
A22G A57C U104A U112C	0
G21U A77G G86A A94G C99U	0.08

Variant	self-cleavage
U23C U45A U52A U132C	1.71
U23C U62A U109A	0.07
U20C U112C A129U	0.66
A22G A67U A92G A121G A129G	0
U23A A79G A136G	1.53
A22G U73C U96A A138G	0
A22G U39C A69G U109C	0
A22G A94G A129U A142U	0.15
U20G A57U U87A U112C U119C	0
A22G G33A U81C U91C	0
A22G C71G A79G U130C A140G	0.51
A22G U62A A67G	0.08
U23C U46C G89A A141G	0.17
G21A G35A U47C U104C A121G G144A	2.02
U23A U91C C103U	0.42
A22G A64U A121U	0.51
A22G G83A U85C U96C C113U G137A	0.04
G21A G34U U47C U73G	0
A22U U96C U102C U104C	1.31
A22G U46A A140G	1.56
A22G U109G U112A U134A	0
U23A U46C G58A G126A	0.12
A22U U115C A129G C145G	2.09
U20G U46A A67G	0.41

Variant	self-cleavage
A22U C68U U102C A142G	0.17
A22G A31G U115C	2.12
G21U G75U U112C C113U A124G	0.36
A22G C38U A64G G70C	0.17
U23C A64U A94G	0
A22G U45C C51A	1.31
U23C A42U A94G U102C	0
A22U A65G U96C A140G	0.28
A22G G55A A78G U102C A107U	0.31
A22G U45C A121G A136G	2.04
U23C U47A A92G C103A	0.16
A22U A24U A57U	0.13
A22G C131A A142G	0.56
A22C A43G U104A U112C C116U A121C	0.48
A22G G82A U85C A124G	0.4
U20C U104A U115A	1.37
U20G C90U U91A U108C U130A	0.07
A22G G35U A65G	0.13
U23C C61U U108A A121U	0.1
A22G A50G U73A U81G U119C A140G	0.66
U23C G53A U73C U102C A136U	1.08
A22U G89A U119C A124G	0.04
A22U U52C C63U	0.45
